Columns and labels:
[1] = target: human CLDN18.2 (human); experiment: cell-based or functional assay
[2] = target: T1, human CLDN18.1 (human, UniProt P56856 1-261); experiment: flow cytometry, binding intensity on human CLDN18.1-HEK293 cells at different concentrations
T1 construct: Overexpressed on HEK293 cells; also called human CLDN18.1-HEK293

[3] = target: T2, murine CLDN18.1 (murine, UniProt P56857 1-264); experiment: flow cytometry on murine CLDN18.1-HEK293 cells
T2 construct: Overexpressed on HEK293 cells; also called murine CLDN18.1-HEK293
T2 sequence (P56857 whole entry): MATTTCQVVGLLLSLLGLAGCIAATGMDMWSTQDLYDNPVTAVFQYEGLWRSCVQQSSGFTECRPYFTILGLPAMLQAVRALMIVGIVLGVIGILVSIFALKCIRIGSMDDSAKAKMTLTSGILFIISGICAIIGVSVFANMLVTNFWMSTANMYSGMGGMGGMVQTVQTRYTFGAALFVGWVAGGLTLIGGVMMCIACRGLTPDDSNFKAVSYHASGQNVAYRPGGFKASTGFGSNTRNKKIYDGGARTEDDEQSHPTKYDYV

T1 sequence (P56856 whole entry): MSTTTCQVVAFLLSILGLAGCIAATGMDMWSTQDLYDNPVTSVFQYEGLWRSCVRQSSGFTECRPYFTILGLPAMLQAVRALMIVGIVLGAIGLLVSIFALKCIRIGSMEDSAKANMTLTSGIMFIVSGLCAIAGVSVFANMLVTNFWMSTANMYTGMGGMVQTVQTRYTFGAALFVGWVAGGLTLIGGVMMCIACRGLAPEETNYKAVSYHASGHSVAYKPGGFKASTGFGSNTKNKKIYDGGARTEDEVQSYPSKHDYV

Binder | EC50 of CDC cell killing effect (MTS) on human CLDN18.2-HEK293T cells [1] | binding result [2] | binding result [3] | EC50 of ADCC cell killing effect (LDH release, human PBMC) on human CLDN18.2-HEK293T cells [1] | EC50 of CDC cell killing effect (MTS) on human CLDN18.2-KATOIII tumor cells [1] | IC50 of Fab-ZAP cell killing (endocytosis, MTS) on CLDN18.2-HEK293T cells [1]
Fc-fused chimeric antibody NA4-S (Fc fusion, It gives no copy number for this molecule; also called candidate antibody NA4-S; NA4-S antibody) EVQVVESGGGLVQPGGSLRLSCAASGSIFSINVMGWYRQAPGKQRELVAGISTGGTTRYADSAKGRFTISRDNAKNTVYLQMNSLKPEDTAVYYCNADLATATSWPVRYLEVWGQGTLVTVSA[letters of human IgG1 Fc left out] | 0.732 nM | no binding (tested: 100 µg/mL) | no binding (tested: 10 µg/mL) | – | – | –
Fc-fused chimeric antibody NA7-S (Fc fusion, Alpaca VHH fused to human IgG1 Fc, expressed in ExpiCHO; also called candidate antibody NA7-S; NA7-S antibody) EVQVQESGGGLVQPGGSLRLSCAASGSFFRIVAMGWYRQAPGSQRELVATITRGGSTYYADSMKGRSTISRDNAKNTVYLQMNSLKPEDTAVYYCNVRVEVPFMQPNDYWGHGTQVTVSS[letters of human IgG1 Fc left out] | 0.507 nM | – | no binding (tested: 10 µg/mL) | 0.11 nM | 6.85 nM | 0.0487 nM
Fc-fused chimeric antibody NA8-S (Fc fusion, Alpaca VHH fused to human IgG1 Fc, expressed in ExpiCHO; also called candidate antibody NA8-S; NA8-S antibody) EVQVQESGGGLVQAGGSLRLSCAASGRTFSNYAVGWFRQAPGKEREFVAAITWSGGSTNYADSVKGRFTISRDNAKNTAWLQMNSLKPEDTAVYYCAGGFFATSYSGNYGYWGQGTQVTVSS[letters of human IgG1 Fc left out] | – | – | no binding (tested: 10 µg/mL) | – | – | –

Source: patent publication US20240092891A1 (SANYOU BIOPHARMACEUTICALS, published 2024)
